Laboratory results as given in PMC4336329 (PLoS ONE, 2015).
About 2,200 (0.71%) of roughly 310,000 compounds showed an effect of 50% or more. The effect is printed as a negative number. Some of the results follow.

Biological target: human ether-à-go-go-related gene (hERG) potassium channel (human, UniProt Q12809)
Test: primary screen, population patch clamp on CHO cells stably expressing hERG

human ether-à-go-go-related gene (hERG) potassium channel, sequence (Q12809 whole entry, looked up): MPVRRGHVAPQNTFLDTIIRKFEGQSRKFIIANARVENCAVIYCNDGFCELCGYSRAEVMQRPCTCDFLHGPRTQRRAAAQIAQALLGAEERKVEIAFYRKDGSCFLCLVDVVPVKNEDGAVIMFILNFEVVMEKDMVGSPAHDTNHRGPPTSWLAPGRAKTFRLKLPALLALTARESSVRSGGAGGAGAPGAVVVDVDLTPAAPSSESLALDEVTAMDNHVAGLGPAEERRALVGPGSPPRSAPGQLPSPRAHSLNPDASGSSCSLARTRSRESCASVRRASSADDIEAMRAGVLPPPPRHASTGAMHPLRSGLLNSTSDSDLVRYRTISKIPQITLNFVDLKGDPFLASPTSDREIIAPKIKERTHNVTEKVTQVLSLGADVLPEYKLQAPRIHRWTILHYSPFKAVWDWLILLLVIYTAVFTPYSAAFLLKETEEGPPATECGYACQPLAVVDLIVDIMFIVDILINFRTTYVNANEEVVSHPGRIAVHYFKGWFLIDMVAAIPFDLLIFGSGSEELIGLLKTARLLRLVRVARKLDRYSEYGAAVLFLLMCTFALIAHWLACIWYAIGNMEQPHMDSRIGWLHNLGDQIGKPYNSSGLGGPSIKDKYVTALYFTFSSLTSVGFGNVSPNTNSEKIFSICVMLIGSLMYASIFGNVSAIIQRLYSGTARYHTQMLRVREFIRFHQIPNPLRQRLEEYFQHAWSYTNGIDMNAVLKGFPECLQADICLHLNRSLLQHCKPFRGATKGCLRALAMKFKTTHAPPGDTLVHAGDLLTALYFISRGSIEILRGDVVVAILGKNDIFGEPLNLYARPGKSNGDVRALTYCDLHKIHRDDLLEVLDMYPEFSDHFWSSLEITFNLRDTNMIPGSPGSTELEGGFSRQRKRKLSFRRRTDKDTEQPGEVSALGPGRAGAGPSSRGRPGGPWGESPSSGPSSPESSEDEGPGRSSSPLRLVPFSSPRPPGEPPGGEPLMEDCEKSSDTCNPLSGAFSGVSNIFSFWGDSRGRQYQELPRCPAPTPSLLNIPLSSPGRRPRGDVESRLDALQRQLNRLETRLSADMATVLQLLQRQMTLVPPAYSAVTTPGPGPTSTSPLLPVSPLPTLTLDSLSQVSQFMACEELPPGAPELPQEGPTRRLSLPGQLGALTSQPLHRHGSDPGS

Structure (SMILES) | hERG current change (%, negative = inhibition) at 1uM
Cc1nc2c(ccc3c2ccc2nc(C)sc23)s1 | 13.6%
CC(=O)N1CCN(c2ccccc2NC(=O)c2cccs2)CC1 | -16.1%
Cc1ccnc(NC(=S)NC(=O)/C=C/c2ccccc2)c1 | 9.59%
CCCCn1nc(-c2ccccc2)c2nc3ccccc3nc21 | 5.38%
Cc1ccc(NCc2nnc(SCC(=O)Nc3nnc(C)s3)n2C)cc1 | 4.75%
CCC(C)[C@H]1CNCCN1CCCc1cc(OC)c(OC)c(OC)c1 (some centres unmarked) | 12.2%
Cc1nn(CC(=O)c2ccc(Cl)s2)c(C)c1[N+](=O)[O-] | 16.1%
Cn1c(=O)[nH]c(=O)c2c1nc1n2CCN1Cc1ccccc1 | 13.3%
CC(C)Cn1c(N)c(C(=O)CSc2nc3ccccc3c(=O)n2CCCN2CCOCC2)c(=O)n(C)c1=O | 1.66%
CC(O)c1nc2ccccc2n1CC(=O)N1CCN(c2ccccc2)CC1 (centres unmarked) | 15.6%
O=C(Nc1cc(S(=O)(=O)N2CCOCC2)ccc1N1CCOCC1)c1ccc(S(=O)(=O)N2CCCCC2)cc1 | 10.5%
CCCOc1ccc(S(=O)(=O)NCCN2CCOCC2)c2ccccc12 | 9.46%
COc1ccc(OC)c(NS(=O)(=O)c2ccc(-c3coc(C)n3)cc2)c1 | 10.4%
Cc1ccc(CCN2CC(C(=O)NCCN3CCOCC3)CC2=O)cc1 (centres unmarked) | 15%
COc1ccc(N(C(=O)c2ccco2)C(C(=O)NC2CCCC2)c2ccco2)cc1OC (centres unmarked) | 4.57%
Cc1ccc(C(=O)N/N=C\C2CC=CCC2)cc1[N+](=O)[O-] (centres unmarked) | 2.47%
Cc1ccc(/C=N/NC(=O)c2nn(C)cc2Cl)cc1 | 2.39%
Cl.O=C(CSc1cccc[n+]1[O-])Nc1ccc(N2CCOCC2)cc1 | 8.76%
O=C(NCCCN1CCOCC1)c1ccc(NS(=O)(=O)c2ccccc2)cc1 | 7.4%
COc1ccc(-n2c3c(c(=O)[nH]c2=O)C(NC(=O)c2ccncc2)(C(F)(F)F)C(=O)N3)cc1 (centres unmarked) | 2.11%
CN(C)c1ccc(P(=O)(OC2CCCCC2)C(O)c2ccncc2)cc1 (centres unmarked) | 5.73%
COc1ccccc1C/C(N)=N/OC(=O)c1cccs1 | 11%
COc1ccc(NC(=O)CCCc2nnc3n(C)c(=O)c4sccc4n23)cc1 | 13.7%

Structure (SMILES) | hERG current change (%, negative = inhibition) at 1uM
CCOC(=O)[C@H]1[C@H]2COc3ccc(C)cc3[C@@H]2N2C(=O)CN(CC3CCCO3)C(=O)[C@@]12C (some centres unmarked) | 13.3%
CCc1ccccc1NC(=O)CN(C)C(=O)COc1ccc(C)nc1[N+](=O)[O-] | 0.971%
COCCn1ccc(O)c(Cc2ccccc2)c1=O | 7.02%
CCN(CC)S(=O)(=O)c1ccc(C(=O)C(C#N)c2ccccn2)cc1 (centres unmarked) | 19.1%
Cc1cnc(C(=O)OCC(=O)N2c3ccccc3NC(=O)C2(C)C)cn1 | 14.3%
O=C(NC1CCCCC1)c1n[nH]c2c1CCCCC2 | 13.2%
Cn1cccc1/C=N/N1CCN(c2ccccn2)CC1 | 15.8%
Cl.c1ccc(CNc2nc(N3CCN(Cc4ccccc4)CC3)nc3ccccc23)cc1 | 10.4%
CC(C)(CNC(=O)c1cccs1)CNC(=O)c1cccs1 | 12.8%
COc1ccccc1NC(=O)C1=C(C)Nc2nnnn2C1c1ccccc1OC (centres unmarked) | 11.1%
COc1ccc2[nH]c(C)c(CCN3C(=O)C4CC=CCC4C3=O)c2c1 (centres unmarked) | 6.96%
COc1ccccc1C(=O)NCC(=O)NCC1(N2CCCCC2)CCCCC1 | 4.1%
Nc1nc(SCc2ccc(Cl)cc2Cl)nc2nc3c(cc12)CCCC3 | 6.88%
CCOc1cc(-n2ncc(C#N)c2N)nc(SC)n1 | 14.4%
O=C(Cc1cccc2ccccc12)Nc1ccccc1 | 12.9%
Cc1cc([N+](=O)[O-])cc2ncccc12 | 1.61%
NC(=O)Cn1c(=O)oc2ccccc21 | 19.3%
O=C(CSC(=S)N1CCOCC1)c1cc(Br)cc(Br)c1O | 4.94%
O=S(=O)(NCC(c1cccnc1)N1CCN(Cc2ccccc2)CC1)c1ccccc1 (centres unmarked) | -52.4%
Cc1c(C(=O)[O-])oc2c1C(O)CC(C)(C)C2.[Na+] (centres unmarked) | 13.2%
O=c1oc2ccccc2cc1-c1csc(Cc2nc(-c3ccc(Br)cc3)cs2)n1 | 9.22%
CCOC(=O)c1cnc(SCC(=O)N2CCc3ccccc32)nc1N | 9.86%
CCOC(=O)CC1CCCCN1Cc1cn(C)nc1-c1ccc2c(c1)OCCO2 (centres unmarked) | 12.7%

Structure (SMILES) | hERG current change (%, negative = inhibition) at 1uM
CC1CCCC(NC(=O)CCn2c(=S)oc3ccccc32)C1C (centres unmarked) | 9.85%
Cc1occc1C(=O)N/N=C/c1ccc[nH]1 | 9.76%
CCCCN(Cc1ccccc1)C(=O)c1cnc2n(c1=O)CCS2 | -0.378%
CN1CCC(NC(=O)c2cccc(Oc3ccccc3)c2)CC1 | 11.7%
Cc1ccc(C(=O)CSc2ncnc3sc4c(c23)CCCC4)cc1 | 1.97%
Cc1cc(NC(=O)C(C)C)ncc1NC(=O)Cc1ccccc1 | 13.3%
O=S1(=O)CCN(Cc2ccccc2C(F)(F)F)CC1 | 7.79%
COCCCNC(=O)c1cc2c(-c3cccc(OC)c3)nn(C)c2s1 | 16.6%
CSc1cccc(NC(=O)CSc2nc3ccccc3o2)c1 | 11.8%
COc1cc(OC)c(N(C)S(=O)(=O)c2cccc(C(=O)OCC(=O)NCc3ccco3)c2)cc1Cl | 8.1%
CCN(CCn1cccn1)C(=O)CC1C(=O)NCCN1CC1CCCCC1 (centres unmarked) | 17.4%
CC(C)Oc1ccc(C(=O)OC(C)C(=O)NC2CCCCC2C)cc1 (centres unmarked) | 7.76%
COc1ccc(C2CC(=O)N(C)c3ccccc3S2)cc1 (centres unmarked) | 2.99%
COC(=O)N1CCN(c2ccc(OC)cc2)CC1 | 0.43%
O=C(N/N=C/c1cc(Cl)cc(Cl)c1O)c1ccncc1 | 0.643%
O=c1c2ccccc2nc2oc3ccccc3n12 | 14.3%
Cc1ccc2nc(C)cc(C(=O)N3CCCC(N4CCN(c5ccccc5C)CC4)C3)c2c1 (centres unmarked) | -14.5%
O=C(c1ccc2c(c1)OCO2)C1CCCN(Cc2cc(F)ccc2-n2cccn2)C1 (centres unmarked) | -78.2%
O=C(COc1ccccc1)NCC(=O)N1CCCCCC1 | 12%
CCOC(=O)C1=C(COC(=O)/C=C/c2ccccc2F)NC(=O)NC1C (centres unmarked) | 10.2%
COCCn1c(SCC(=O)NCc2ccc(F)cc2)nc2ccccc21 | 2.2%
O=C(Nc1ccc(N2CCCCC2)c(Cl)c1)c1cccnc1 | 4.81%
CCOC(=O)C1CCN(C(=O)c2cc(S(=O)(=O)N3CCOCC3)c(Cl)cc2Cl)CC1 | -7.83%

Structure (SMILES) | hERG current change (%, negative = inhibition) at 1uM
CCOC(=O)c1c(CN2CCCCC2)n(C)c2ccc(OC)c(S(=O)(=O)c3ccccc3)c12 | -6.01%
COc1cccc(NC(=O)COC(=O)c2ccco2)c1 | 7.17%
CC1c2cc3c(cc2CCN1C(=O)c1cccc(Cl)c1)OCCCO3 (centres unmarked) | 14.3%
O=C1/C(=C\c2ccco2)SC(=S)N1Cc1ccccc1 | 16.3%
Cc1nc(NC(=O)/C=C/c2ccccc2)n[nH]1 | 13.6%
Cc1ccc(CNC(=O)c2ccc(CS(=O)Cc3cccc(Cl)c3)o2)cc1 (centres unmarked) | 8.16%
COc1cc(C(=O)CSc2nccn2C)cc(OC)c1OC | 19.3%
CCOc1ccc(C(=O)NCC(=O)N2CCc3ccccc3C2)cc1OCC | 4.03%
COc1ccccc1/C=C/C(=O)NCC(=O)N/N=C/c1ccc(C)o1 | 5.98%
Cc1ccc(S(=O)(=O)N2CCC(=O)N(C(COCc3cccc(C)c3)C(C)C)CC2)cc1 (centres unmarked) | 0.649%
S=C(NCc1ccco1)Nc1ccc(Oc2ccc(Cl)cc2)cc1 | 5.63%
COc1cc(S(=O)(=O)NCC2COCCO2)ccc1-n1cnnn1 (centres unmarked) | -3.1%
COc1ccc(-c2oc3ccc(-c4ccc5c(c4)OCO5)cc3c2-c2ccc(OC)nc2)cc1 | 12.6%
Cc1ccc(-c2nnc(-n3nnc4ccccc43)c3ccccc23)cc1 | 21.1%
Cc1cc(C)nc(N2CCCC(C(=O)NC3CC3)C2)n1 (centres unmarked) | 2.5%
Cc1cccc(OCc2nnc(SCc3nc4cc(C(F)(F)F)ccc4c(=O)[nH]3)o2)c1 | 11.7%
COc1cccc(-n2cc(CN(C)Cc3nc(Cc4cccc(F)c4)no3)cn2)c1 | 10.8%
Cc1cccc(CSC(=N)N)c1 | 9.48%
Cc1ccc(SCC(=O)c2ccc(CC(=O)O)s2)cc1 | 11.9%
CS(=O)(=O)N(CC(=O)Nc1ccccc1C(=O)N1CCOCC1)c1cccc(F)c1 | 3.16%
Cl.NCCC1CCCC(CCN)N1 (centres unmarked) | 8.26%
Cc1ccc(NCC(=O)Nc2ccc(Br)cc2)cc1F | 6.39%
COc1ccc(C(=O)C2CCCN(C(=O)c3ccc4nccnc4c3)C2)c(C)c1 (centres unmarked) | 23.4%
